The list shows a part of the results. The full chains were built here from the parent and the listed change. Values near 0.05 are background.
B1: TEV protease; numbered along this chain (parent)
chain: MGESLFKGPRDYNPISSSICHLTNESDGHTTSLYGIGFGPFIITNKHLFRRNNGTLVVQSLHGVFKVKDTTTLQQHLVDGRDMIIIRMPKDFPPFPQKLKFREPQREERICLVTTNFQTKSMSSMVSDTSCTFPSGDGIFWKHWIQTKDGQCGSPLVSTRDGFIVGIHSASNFTNTNNYFTSVPKNFMELLTNQEAQQWVSGWRLNADSVLWGGHKVFMVKPEEPFQPVKEATQL

Variants of: B1
Experiment: raw area under fraction-flipped curve 0-4 h after induction (AUC4h, not background-subtracted), DNA-recorder readout of cleavage of the substrate (dimensionless); higher = more cleavage of the substrate by the protease variant
Settings: temperature: 34 °C; time window: 0-4 h after rhamnose induction
Protocol: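 In vivo DNA recorder in E. coli TOP10(DE3) ΔrhaA at 34 °C. Each TEVp single-site mutant (parent TEVp 0) is paired with a single-site variant of the 7-mer TEVs (canonical ENLYFQ|S). The substrate sits between flexible linkers in a Bxb1-sfGFP-TEVs-SsrA fusion, so cleavage stabilises Bxb1 and speeds flipping of a recombination array, read by NGS. The value is the raw area under the fraction-flipped curve over 0-4 h after rhamnose induction (AUC4h), with ≥20 reads per time point. It is not background-subtracted; inactive controls average about 0.047.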
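Also: Bxb1 expression induced with 0.2% (w/v) L-rhamnose at OD600 near 0.5, cultures sampled hourly, flipped fraction per protease–substrate barcode pair counted by paired-end Illumina sequencing.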

## G37F
  area with substrate ENLAFQS: 0.0643
  area with substrate ENLCFQS: 0.0368
  area with substrate ENLDFQS: 0.0555
  area with substrate ENLFFQS: 0.0714
  area with substrate ENLGFQS: 0.0405
  area with substrate ENLHFQS: 0.0628
  area with substrate ENLIFQS: 0.0625
  area with substrate ENLKFQS: 0.0611
  area with substrate ENLMFQS: 0.0577
  area with substrate ENLNFQS: 0.0598
  area with substrate ENLPFQS: 0.0576
  area with substrate ENLQFQS: 0.0643
  area with substrate ENLRFQS: 0.0686
  area with substrate ENLSFQS: 0.0652
  area with substrate ENLWFQS: 0.0534

## S135F
  area with substrate ENLAFQS: 0.0647
  area with substrate ENLCFQS: 0.0686
  area with substrate ENLDFQS: 0.0699
  area with substrate ENLFFQS: 0.0647
  area with substrate ENLHFQS: 0.0636
  area with substrate ENLIFQS: 0.0627
  area with substrate ENLKFQS: 0.0618
  area with substrate ENLLFQS: 0.0594
  area with substrate ENLMFQS: 0.0604
  area with substrate ENLNFQS: 0.065
  area with substrate ENLPFQS: 0.0527
  area with substrate ENLQFQS: 0.0794
  area with substrate ENLRFQS: 0.0492
  area with substrate ENLSFQS: 0.0532
  area with substrate ENLVFQS: 0.0636

## S121K
  area with substrate ENLAFQS: 0.0806
  area with substrate ENLCFQS: 0.0793
  area with substrate ENLDFQS: 0.0519
  area with substrate ENLEFQS: 0.0679
  area with substrate ENLFFQS: 0.032
  area with substrate ENLGFQS: 0.0649
  area with substrate ENLHFQS: 0.0716
  area with substrate ENLIFQS: 0.117
  area with substrate ENLMFQS: 0.0729
  area with substrate ENLPFQS: 0.0307
  area with substrate ENLQFQS: 0.0882
  area with substrate ENLSFQS: 0.0723
  area with substrate ENLWFQS: 0.0646

## Q151T
  area with substrate ENLAFQS: 0.0704
  area with substrate ENLCFQS: 0.0511
  area with substrate ENLDFQS: 0.0501
  area with substrate ENLEFQS: 0.0391
  area with substrate ENLFFQS: 0.11
  area with substrate ENLGFQS: 0.0663
  area with substrate ENLHFQS: 0.0785
  area with substrate ENLKFQS: 0.0765
  area with substrate ENLLFQS: 0.0569
  area with substrate ENLMFQS: 0.0736
  area with substrate ENLNFQS: 0.0634
  area with substrate ENLPFQS: 0.0675
  area with substrate ENLQFQS: 0.0578
  area with substrate ENLRFQS: 0.0683
  area with substrate ENLSFQS: 0.048

## S127L
  area with substrate ENLAFQS: 0.0714
  area with substrate ENLCFQS: 0.0697
  area with substrate ENLDFQS: 0.0589
  area with substrate ENLEFQS: 0.0684
  area with substrate ENLFFQS: 0.0973
  area with substrate ENLGFQS: 0.0585
  area with substrate ENLKFQS: 0.0889
  area with substrate ENLNFQS: 0.0542
  area with substrate ENLQFQS: 0.0688
  area with substrate ENLRFQS: 0.0726
  area with substrate ENLSFQS: 0.0531

## V113M
  area with substrate ENLAFQS: 0.0631
  area with substrate ENLDFQS: 0.0598
  area with substrate ENLEFQS: 0.0749
  area with substrate ENLFFQS: 0.0959
  area with substrate ENLHFQS: 0.0706
  area with substrate ENLMFQS: 0.0324
  area with substrate ENLNFQS: 0.0751
  area with substrate ENLPFQS: 0.0388
  area with substrate ENLQFQS: 0.0805
  area with substrate ENLRFQS: 0.0642

## G54A
  area with substrate ENLAFQS: 0.0548
  area with substrate ENLDFQS: 0.0635
  area with substrate ENLEFQS: 0.0559
  area with substrate ENLFFQS: 0.0645
  area with substrate ENLHFQS: 0.0906
  area with substrate ENLKFQS: 0.0626
  area with substrate ENLNFQS: 0.0585
  area with substrate ENLPFQS: 0.0634
  area with substrate ENLRFQS: 0.0698
  area with substrate ENLTFQS: 0.0691
  area with substrate ENLWFQS: 0.0615

## F41G
  area with substrate ENLAFQS: 0.0534
  area with substrate ENLCFQS: 0.0442
  area with substrate ENLDFQS: 0.0878
  area with substrate ENLEFQS: 0.0594
  area with substrate ENLFFQS: 0.0689
  area with substrate ENLGFQS: 0.0753
  area with substrate ENLHFQS: 0.0544
  area with substrate ENLIFQS: 0.0604
  area with substrate ENLLFQS: 0.0623
  area with substrate ENLNFQS: 0.0588
  area with substrate ENLPFQS: 0.0535
  area with substrate ENLQFQS: 0.0442
  area with substrate ENLRFQS: 0.0562
  area with substrate ENLSFQS: 0.0454
  area with substrate ENLWFQS: 0.0304

## Q97A
  area with substrate ENLAFQS: 0.0558
  area with substrate ENLDFQS: 0.0579
  area with substrate ENLFFQS: 0.0667
  area with substrate ENLHFQS: 0.0862
  area with substrate ENLKFQS: 0.0859
  area with substrate ENLRFQS: 0.092
  area with substrate ENLSFQS: 0.0651
  area with substrate ENLWFQS: 0.0678

## F95H
  area with substrate ENLAFQS: 0.0715
  area with substrate ENLCFQS: 0.0967
  area with substrate ENLDFQS: 0.0565
  area with substrate ENLEFQS: 0.064
  area with substrate ENLHFQS: 0.064
  area with substrate ENLIFQS: 0.0643
  area with substrate ENLKFQS: 0.0621
  area with substrate ENLLFQS: 0.0678
  area with substrate ENLMFQS: 0.0643
  area with substrate ENLNFQS: 0.0591
  area with substrate ENLSFQS: 0.0501
  area with substrate ENLVFQS: 0.0581

## H62Y
  area with substrate ENLAFQS: 0.089
  area with substrate ENLDFQS: 0.0681
  area with substrate ENLEFQS: 0.0499
  area with substrate ENLFFQS: 0.0998
  area with substrate ENLGFQS: 0.0586
  area with substrate ENLIFQS: 0.093
  area with substrate ENLKFQS: 0.0683
  area with substrate ENLLFQS: 0.0707
  area with substrate ENLMFQS: 0.0843
  area with substrate ENLNFQS: 0.0898
  area with substrate ENLPFQS: 0.0563
  area with substrate ENLRFQS: 0.0741
  area with substrate ENLSFQS: 0.0726
  area with substrate ENLVFQS: 0.0805
  area with substrate ENLWFQS: 0.0404

## W203V
  area with substrate ENLAFQS: 0.0619
  area with substrate ENLCFQS: 0.055
  area with substrate ENLDFQS: 0.0601
  area with substrate ENLEFQS: 0.0546
  area with substrate ENLFFQS: 0.0333
  area with substrate ENLGFQS: 0.0505
  area with substrate ENLHFQS: 0.0558
  area with substrate ENLIFQS: 0.0569
  area with substrate ENLKFQS: 0.0622
  area with substrate ENLLFQS: 0.079
  area with substrate ENLNFQS: 0.0603
  area with substrate ENLPFQS: 0.065
  area with substrate ENLQFQS: 0.0578
  area with substrate ENLSFQS: 0.0589
  area with substrate ENLVFQS: 0.0732
  area with substrate ENLWFQS: 0.0544

## P134Q
  area with substrate ENLAFQS: 0.0708
  area with substrate ENLCFQS: 0.0661
  area with substrate ENLEFQS: 0.0641
  area with substrate ENLFFQS: 0.0738
  area with substrate ENLHFQS: 0.0632
  area with substrate ENLKFQS: 0.0679
  area with substrate ENLLFQS: 0.0693
  area with substrate ENLPFQS: 0.0525
  area with substrate ENLSFQS: 0.0619
  area with substrate ENLVFQS: 0.0756
  area with substrate ENLWFQS: 0.0594
